# In patent US20230101803A1, “3CLPRO-TARGETING PHILLYRIN, DERIVATIVE THEREOF, AND USE THEREOF AGAINST NOVEL CORONAVIRUS” (DALIAN FUSHENG NATURAL MEDICINE DEVELOPMENT CO., LTD., priority 2020, published 2023):
# Tested on: SARS-CoV-2 strain of COVID-19 virus
# Assay: Cytopathic effect (CPE) inhibition of COVID-19 virus in VeroE6 cells in vitro
# Conditions: SARS-CoV-2, VeroE6 cells
Compound,inhibitory effect (compared in the same study) (compared with composition and pure phillyrin),half maximal inhibitory concentration (IC50) (CPE)
COc1cc([C@H]2OC[C@H]3[C@@H]2CO[C@H]3c2ccc(OC)c(OC)c2)ccc1O [phillygenin],worse,–
phillyrin [KD-1],–,179.1 µg/mL
